The supplement of paper PMC7826260
Some of the results follow. One pool of 16,384 single-stranded DNAs met each Rep nickase domain in vitro at 3 µM enzyme and 37 °C for 1 h; the strands have 90 letters, of which the middle is given. Values are log2 of uncut reads against the no-enzyme pool; uncut sequences lie near 0, cut ones below; no hit call is given. The scaling is to total reads; uncut strands gain when others are lost, and binding without cutting may add a little.

The sequences below were run on T1, Rep nickase domain of tomato golden mosaic virus (assay: uncleaved DNA left, log2 of reads against the no-enzyme library (log2 ratio); higher = less cleavage (more negative = more Rep cleavage of the k-mer); sequences stand for … in CTCGTCCG…ACCGGAGA).
T1 sequence (residues 1-124, tag not shown): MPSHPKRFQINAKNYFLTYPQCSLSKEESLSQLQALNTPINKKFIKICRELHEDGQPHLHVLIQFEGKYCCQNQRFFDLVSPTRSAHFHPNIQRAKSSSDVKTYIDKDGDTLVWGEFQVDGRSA
Description: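 A pool of 90-nt single-stranded DNAs with seven random bases just before the constant AC of the nick site (name = the seven bases) was cut by 3 µM recombinant His6-SUMO-tagged Rep nickase domain (300 nM DNA, 50 mM HEPES pH 8.0, 50 mM NaCl, 1 mM MnCl2, 1 h, 37 °C, three replicates). Uncut DNA was amplified and sequenced.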

Row | Sequence | uncleaved DNA left (log2)
1 | TCCGGGA | -0.0216
2 | GTTGGCG | -0.0866
3 | CTGAAAA | 0.0539
4 | TCCCCGT | -0.178
5 | CGAGGAG | 0.0753
6 | TCAATGC | 0.031
7 | TCTCGCA | 0.0336
8 | CAGCCGA | 0.0735
9 | GCAGTAC | 0.0561
10 | ATTCGAG | 1.84e-05
11 | AAATCGG | 0.0766
12 | GGCCCGA | -0.0187
13 | TTGGAAA | 0.114
14 | CGGTGCC | -0.0291
15 | TGATCCA | -0.102
16 | CCTCAAT | -0.172
17 | TAGTTTC | 0.0217
18 | TGATTCT | -0.211
19 | TAGTACG | 0.0124
20 | GCAATGT | -0.00721

Row | Sequence | uncleaved DNA left (log2)
21 | TGATTGA | 0.0859
22 | CCTAGCC | -0.177
23 | TTATGAC | -0.04
24 | ACTGTCC | 0.13
25 | AAGCGGT | 0.0814
26 | TGGACGA | -0.00433
27 | CACGAAC | -0.103
28 | CGTAGAG | -0.0649
29 | CGTTAAC | -0.119
30 | TTTGCCG | -0.341
31 | GTAAATT | 0.0915
32 | CAAAACG | 0.0464
33 | CCGCTTG | 0.163
34 | TGGTTAT | -0.00108
35 | ACCTCCT | 0.0482
36 | TTCAAGC | -0.0415
37 | TTGCTAT | -0.204
38 | ATCCTCT | -0.105
39 | GCAGCAA | -0.0548
40 | ACTACTT | 0.0324
